According to the supplement of paper PMC8728848:
This is one part of the list.

What was measured:
Experiment in all cases: glycan array binding signal (z-score within array); higher = stronger binding
Details in all cases: glycan notation: IUPAC condensed, linker removed
[1] = molecular target: GlcNAc(b1-4)GlcNAc(b1-4)GlcNAc(b1-4)GlcNAc(b1-4)GlcNAc
Summary of the method: (§1)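 The binding signal is a Z-score computed within each array. Data were drawn from 3228 arrays in the Consortium for Functional Glycomics database, restricted to those with a known protein sequence. Scores were averaged over arrays of the same protein sequence at different concentrations or buffers, and over linkers, and negative values can be taken as non-binding.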

[2] = molecular target: GlcNAc(b1-4)GlcNAc(b1-4)GlcNAc(b1-4)GlcNAc(b1-4)GlcNAc(b1-4)GlcNAc
Summary of the method: as §1

[3] = molecular target: GlcNAc(b1-4)[GlcNAc(b1-6)]GalNAc
Summary of the method: as §1

[4] = molecular target: GlcNAc(b1-6)Gal(b1-4)GlcNAc
Summary of the method: as §1

GlcNAc(b1-6)GalNAc = molecular target: GlcNAc(b1-6)GalNAc
Summary of the method: as §1

GlcNAc3Prop(b1-4)GlcNAc = molecular target: GlcNAc3Prop(b1-4)GlcNAc
Summary of the method: as §1

[5] = molecular target: GlcNAc6S(b1-3)Gal(b1-4)GlcNAc
Summary of the method: as §1

Kdn(a2-3)Gal(b1-3)GalNAc = molecular target: Kdn(a2-3)Gal(b1-3)GalNAc
Summary of the method: as §1

Kdn(a2-3)Gal(b1-3)GlcNAc = molecular target: Kdn(a2-3)Gal(b1-3)GlcNAc
Summary of the method: as §1

Kdn(a2-3)Gal(b1-4)Glc = molecular target: Kdn(a2-3)Gal(b1-4)Glc
Summary of the method: as §1

Kdn(a2-3)Gal(b1-4)GlcNAc = molecular target: Kdn(a2-3)Gal(b1-4)GlcNAc
Summary of the method: as §1

[6] = molecular target: Kdn(a2-3)Gal(b1-4)[Fuc(a1-3)]GlcNAc
Summary of the method: as §1

Kdn(a2-6)Gal(b1-4)GlcNAc = molecular target: Kdn(a2-6)Gal(b1-4)GlcNAc
Summary of the method: as §1

[7] = molecular target: Man(a1-2)Man(a1-2)Man(a1-3)Man
Summary of the method: as §1

[8] = molecular target: Man(a1-2)Man(a1-2)Man(a1-6)[Man(a1-3)]Man
Summary of the method: as §1

Man(a1-2)Man(a1-3)Man = molecular target: Man(a1-2)Man(a1-3)Man
Summary of the method: as §1

[9] = molecular target: Man(a1-2)Man(a1-3)[Man(a1-2)Man(a1-6)]Man
Summary of the method: as §1

[10] = molecular target: Man(a1-2)Man(a1-3)[Man(a1-2)Man(a1-6)]Man(a1-6)[Man(a1-2)Man(a1-2)Man(a1-3)]Man
Summary of the method: as §1

[11] = molecular target: Man(a1-2)Man(a1-3)[Man(a1-2)Man(a1-6)]Man(a1-6)[Man(a1-2)Man(a1-2)Man(a1-3)]Man(b1-4)GlcNAc(b1-4)GlcNAc
Summary of the method: as §1

[12] = molecular target: Man(a1-2)Man(a1-3)[Man(a1-6)]Man(a1-6)[Man(a1-2)Man(a1-3)]Man(b1-4)GlcNAc(b1-4)GlcNAc
Summary of the method: as §1

[13] = molecular target: Man(a1-2)Man(a1-6)[Man(a1-3)]Man(a1-6)[Man(a1-2)Man(a1-2)Man(a1-3)]Man
Summary of the method: as §1

[14] = molecular target: Man(a1-2)Man(a1-6)[Man(a1-3)]Man(a1-6)[Man(a1-2)Man(a1-2)Man(a1-3)]Man(b1-4)GlcNAc(b1-4)GlcNAc
Summary of the method: as §1

Man(a1-3)[Man(a1-6)]Man = molecular target: Man(a1-3)[Man(a1-6)]Man
Summary of the method: as §1

[15] = molecular target: Man(a1-3)[Man(a1-6)]Man(a1-6)[Man(a1-2)Man(a1-3)]Man(b1-4)GlcNAc(b1-4)GlcNAc
Summary of the method: as §1

[16] = molecular target: Man(a1-3)[Man(a1-6)]Man(a1-6)[Man(a1-3)]Man
Summary of the method: as §1

[17] = molecular target: Man(a1-3)[Man(a1-6)]Man(a1-6)[Man(a1-3)]Man(b1-4)GlcNAc(b1-4)GlcNAc
Summary of the method: as §1

[18] = molecular target: Man(a1-3)[Man(a1-6)]Man(b1-4)GlcNAc(b1-4)GlcNAc
Summary of the method: as §1

[19] = molecular target: Man(a1-3)[Man(a1-6)]Man(b1-4)GlcNAc(b1-4)[Fuc(a1-6)]GlcNAc
Summary of the method: as §1

Man(a1-6)Man = molecular target: Man(a1-6)Man
Summary of the method: as §1

Man(b1-4)GlcNAc = molecular target: Man(b1-4)GlcNAc
Summary of the method: as §1

Neu5Ac(a2-3)Gal = molecular target: Neu5Ac(a2-3)Gal
Summary of the method: as §1

[20] = molecular target: Neu5Ac(a2-3)Gal(b1-3)GalNAc
Summary of the method: as §1

[21] = molecular target: Neu5Ac(a2-3)Gal(b1-3)GalNAc(b1-3)Gal(a1-4)Gal(b1-4)Glc
Summary of the method: as §1

[22] = molecular target: Neu5Ac(a2-3)Gal(b1-3)GalNAc(b1-3)Gal(b1-4)GlcNAc
Summary of the method: as §1

[23] = molecular target: Neu5Ac(a2-3)Gal(b1-3)GalNAc(b1-4)[Neu5Ac(a2-3)]Gal(b1-4)Glc
Summary of the method: as §1

[24] = molecular target: Neu5Ac(a2-3)Gal(b1-3)GalNAc(b1-4)[Neu5Ac(a2-8)Neu5Ac(a2-3)]Gal(b1-4)Glc
Summary of the method: as §1

[25] = molecular target: Neu5Ac(a2-3)Gal(b1-3)GalNAc6S
Summary of the method: as §1

[26] = molecular target: Neu5Ac(a2-3)Gal(b1-3)GlcNAc
Summary of the method: as §1

[27] = molecular target: Neu5Ac(a2-3)Gal(b1-3)GlcNAc(b1-2)Man(a1-3)[GlcNAc(b1-4)][Neu5Ac(a2-3)Gal(b1-3)GlcNAc(b1-2)Man(a1-6)]Man(b1-4)GlcNAc(b1-4)GlcNAc
Summary of the method: as §1

[28] = molecular target: Neu5Ac(a2-3)Gal(b1-3)GlcNAc(b1-3)Gal(b1-3)GlcNAc
Summary of the method: as §1

[29] = molecular target: Neu5Ac(a2-3)Gal(b1-3)GlcNAc(b1-3)Gal(b1-4)GlcNAc
Summary of the method: as §1

[30] = molecular target: Neu5Ac(a2-3)Gal(b1-3)GlcNAc(b1-3)GalNAc
Summary of the method: as §1

[31] = molecular target: Neu5Ac(a2-3)Gal(b1-3)GlcNAc(b1-6)GalNAc
Summary of the method: as §1

[32] = molecular target: Neu5Ac(a2-3)Gal(b1-3)GlcNAc6S
Summary of the method: as §1

[33] = molecular target: Neu5Ac(a2-3)Gal(b1-3)[Fuc(a1-4)]GlcNAc
Summary of the method: as §1

B1: Gal 8 (Homo sapiens), O00214_1 (protein)
chain: MMLSLNNLQNIIYNPVIPFVGTIPDQLDPGTLIVIRGHVPSDADRFQVDLQNGSSMKPRADVAFHFNPRFKRAGCIVCNTLINEKWGREEITYDTPFKREKSFEIVIMVLKDKFQVAVNGKHTLLYGHRIGPEKIDTLGIYGKVNIHSIGFSFSSDLQSTQASSLELTEISRENVPKSGTPQLRLPFAARLNTPMGPGRTVVVKGEVNANAKSFNVDLLAGKSKDIALHLNPRLNIKAFVRNSFLQESWGEEERNITSFPFSPGMYFEMIIYCDVREFKVAVNGVHSLEYKHRFKELSSIDTLEINGDIHLLEVRSW
[1]
  glycan array binding signal (z-score): -0.19
[2]
  glycan array binding signal (z-score): -0.209
[3]
  glycan array binding signal (z-score): -0.246
[4]
  glycan array binding signal (z-score): -0.265
GlcNAc(b1-6)GalNAc
  glycan array binding signal (z-score): -0.225
GlcNAc3Prop(b1-4)GlcNAc
  glycan array binding signal (z-score): -0.231
[5]
  glycan array binding signal (z-score): -0.585
Kdn(a2-3)Gal(b1-3)GalNAc
  glycan array binding signal (z-score): -0.154
Kdn(a2-3)Gal(b1-3)GlcNAc
  glycan array binding signal (z-score): 0.062
Kdn(a2-3)Gal(b1-4)Glc
  glycan array binding signal (z-score): -0.652
Kdn(a2-3)Gal(b1-4)GlcNAc
  glycan array binding signal (z-score): -0.205
[6]
  glycan array binding signal (z-score): -0.199
Kdn(a2-6)Gal(b1-4)GlcNAc
  glycan array binding signal (z-score): -0.219
[7]
  glycan array binding signal (z-score): -0.273
[8]
  glycan array binding signal (z-score): -0.223
Man(a1-2)Man(a1-3)Man
  glycan array binding signal (z-score): -0.215
[9]
  glycan array binding signal (z-score): -0.223
[10]
  glycan array binding signal (z-score): -0.231
[11]
  glycan array binding signal (z-score): 0.589
[12]
  glycan array binding signal (z-score): -0.196
[13]
  glycan array binding signal (z-score): -0.193
[14]
  glycan array binding signal (z-score): -0.252
Man(a1-3)[Man(a1-6)]Man
  glycan array binding signal (z-score): -0.239
[15]
  glycan array binding signal (z-score): 2.31
[16]
  glycan array binding signal (z-score): -0.195
[17]
  glycan array binding signal (z-score): -0.16
[18]
  glycan array binding signal (z-score): -0.177
[19]
  glycan array binding signal (z-score): -0.229
Man(a1-6)Man
  glycan array binding signal (z-score): -0.233
Man(b1-4)GlcNAc
  glycan array binding signal (z-score): -0.256
Neu5Ac(a2-3)Gal
  glycan array binding signal (z-score): -0.18
[20]
  glycan array binding signal (z-score): -0.08
[21]
  glycan array binding signal (z-score): -0.078
[22]
  glycan array binding signal (z-score): 0.203
[23]
  glycan array binding signal (z-score): 0.064
[24]
  glycan array binding signal (z-score): -0.212
[25]
  glycan array binding signal (z-score): 0.137
[26]
  glycan array binding signal (z-score): 0.105
[27]
  glycan array binding signal (z-score): -2.19
[28]
  glycan array binding signal (z-score): 1.18
[29]
  glycan array binding signal (z-score): 0.746
[30]
  glycan array binding signal (z-score): 0.065
[31]
  glycan array binding signal (z-score): -0.002
[32]
  glycan array binding signal (z-score): 2.19
[33]
  glycan array binding signal (z-score): -0.211
